Data from PubChem BioAssay AID588453 (National Center for Advancing Translational Sciences (NCATS), 2011).
Out of some 390,000 compounds screened, about 4,000 (1%) were called active. This list was built around the results that the source calls inconclusive (neither active nor inactive); the mix of calls is not that of the screen. The call rests on the fitted dose curve; in most records, active means well fitted inhibition curve with a large enough effect; inconclusive means small, poorly fitted or top-dose-only effect; inactive means no such curve, though single readings can be large or run the other way. Potencies of inconclusive entries are doubtful fits and often do not repeat.

molecular target: Thioredoxin reductase 1, cytoplasmic (Rattus norvegicus) (UniProt O89049); test: qHTS Assay for Inhibitors of Mammalian Selenoprotein Thioredoxin Reductase 1 (TrxR1): qHTS; details: recombinant rTrxR1, NADPH fluorescence consumption, selenite substrate; series mostly up to 114 µM; activity change, negative = inhibition: at the top concentration; further: nearly all actives have a fitted effect of over 65% in size
Sequence of UniProt O89049 (O89049 whole entry, looked up): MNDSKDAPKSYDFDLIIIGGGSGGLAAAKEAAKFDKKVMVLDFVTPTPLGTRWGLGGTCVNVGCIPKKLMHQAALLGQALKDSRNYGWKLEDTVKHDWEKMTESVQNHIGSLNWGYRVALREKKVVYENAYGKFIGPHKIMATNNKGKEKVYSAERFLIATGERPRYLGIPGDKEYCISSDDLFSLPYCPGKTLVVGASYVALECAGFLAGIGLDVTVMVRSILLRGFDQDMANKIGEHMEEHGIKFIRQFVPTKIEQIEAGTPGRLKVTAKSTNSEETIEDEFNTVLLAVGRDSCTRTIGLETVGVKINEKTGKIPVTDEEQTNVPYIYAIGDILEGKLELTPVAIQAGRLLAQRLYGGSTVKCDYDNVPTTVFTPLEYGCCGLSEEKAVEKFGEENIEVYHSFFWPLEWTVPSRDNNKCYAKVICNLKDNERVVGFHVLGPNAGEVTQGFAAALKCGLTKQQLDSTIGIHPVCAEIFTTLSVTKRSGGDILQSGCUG
Method in brief: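 Rat TrxR1 (90 nM in the dispensed reagent) was pre-reduced with 400 uM NADPH for 5 min at room temperature, then incubated with compound for 15 min. After 400 uM selenite was added, NADPH fluorescence (Ex 340/Em 450 nm) was followed for 8 min.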
On the % scale 0 is the no-effect control and ±100 the full control effect; potency means the concentration at half of the fitted maximal effect; tags describe the fitted curve by direction and shape.

Compound	Potency	activity change, negative = inhibition
COc1cc(NC(=S)NC(=O)c2cccs2)ccc1NC(=O)C(C)C	inconclusive: 79.4 µM [inhibitor, single point]	
CCOC(=O)c1c(C)[nH]c(C2=NNC(=Nc3ccc(OCC)cc3)SC2)c1C	inconclusive: 79.4 µM [inhibitor, partial curve]	
COc1ccc(Br)c2c1-c1nc(NC(=O)c3cccc(C)c3)sc1C2	inconclusive: 70.8 µM [inhibitor, single point]	
COc1ccc(C2CC(c3ccc(C)o3)=NN2C(C)=O)cc1 (centres undefined)		inactive: -11.5%
Cn1c(Cc2ccc3c(c2)OCO3)nnc1SCC(=O)N1CCc2ccccc2C1	inconclusive: 15.8 µM [inhibitor, full curve]	
Cc1cc(NC(=O)CSc2nnc(-c3ccco3)n2C)no1	inconclusive: 63.1 µM [inhibitor, partial curve, poor fit]	
O=C(O)c1cccc(NC(=S)NC(=O)c2cccc(OCc3ccccc3)c2)c1	inconclusive: 31.6 µM [inhibitor, partial curve]	
O=[N+]([O-])c1cc([N+](=O)[O-])c2oc(-c3ccccc3)c(Br)c2c1O		inactive: -5.42%
Cc1ccc(NC(=O)Cc2nc(COC(=O)C(C)NS(=O)(=O)c3ccc(C)cc3)cs2)cc1 (centres undefined)	inconclusive: 79.4 µM [inhibitor, partial curve, poor fit]	
COc1ccc(/C=C/c2nccc3c2[nH]c2ccccc23)cc1		inactive: 17%
CCOC(=O)C1=C(Cc2ccc(Cl)cc2)C(=O)c2ccccc2C1=O	active: 10 µM	
COc1cc(CNc2ncn[nH]2)ccc1OCc1ccccc1C	inconclusive: 89.1 µM [inhibitor, single point]	
N#CC1=C2SCN(Cc3ccco3)CN2C(=O)CC1c1c(F)cccc1Cl (centres undefined)	inconclusive: 14.1 µM [inhibitor, partial curve]	
CCC(c1nnnn1CCOC)N(Cc1cc2c(C)cc(C)cc2[nH]c1=O)CC1CCCO1 (centres undefined)	inconclusive: 22.4 µM [inhibitor, full curve]	
O=C(N/C=N/O)C(c1ccccc1)c1ncc(C(F)(F)F)cc1Cl (centres undefined)	inconclusive: 28.2 µM [inhibitor, single point]	
O=C(Nc1ccc(Cl)cc1)Nc1csc([N+](=O)[O-])c1	inconclusive: 35.5 µM [inhibitor, single point]	
COc1ccc(CCN(C)C(=O)C2CCCN(C3CCN(Cc4ccccc4)CC3)C2)cc1OC (centres undefined)	inconclusive: 50.1 µM [inhibitor, partial curve]	
O=S(=O)(c1ccc(F)cc1)c1nc(-c2ccccc2F)oc1N1CCCCC1	inconclusive: 50.1 µM [inhibitor, partial curve]	
CCCC(=O)c1c(NC)cc(C)oc1=O	inconclusive: 70.8 µM [inhibitor, single point]	
Cc1cc(C(=O)Nc2sccc2C#N)c2ccccc2n1	inconclusive: 44.7 µM [inhibitor, partial curve]	
COc1ccc(NC(=O)CSc2nc3c(c(=O)[nH]2)CN(Cc2ccccc2)CC3)cc1Cl		inactive: 14.6%
COc1ccc(CN2CCNC(=O)C2CC(=O)NCc2cc(C)n(C)n2)c(F)c1 (centres undefined)	active: 39.8 µM	
CC1(C)C(c2ccccc2)=[N+]([O-])C2(CCCCC2=O)N1O (centres undefined)	inconclusive: 10 µM [inhibitor, full curve]	

Compound	Potency	activity change, negative = inhibition
O=C(NC(=S)Nc1cccc2ncccc12)c1ccccc1	inconclusive: 50.1 µM [inhibitor, partial curve]	
O=C1NC[C@@H](Cc2cccc3ccccc23)N(CCCCC2CCCCC2)C1=O		inactive: 14.3%
COC(=O)C(=C/C(C)=C/c1cccnc1)C(=O)OC	active: 56.2 µM	
O=C1c2ccccc2C(=O)N1COc1ccc(S(=O)(=O)N2CCOCC2)cc1[N+](=O)[O-]		inactive: 14.3%
CCOc1cc(C(=O)Nc2cc(C)ccn2)cc(OCC)c1OCC		inactive: -12.5%
CC(C)(C)OC(=O)NCC(=O)Oc1cc2oc(=O)cc(-c3ccccc3)c2cc1Cl	inconclusive: 56.2 µM [inhibitor, partial curve, poor fit]	
COc1ccc(OC)c(C(=O)N(C[C@H]2CC[C@@H]([C@@H]3CC[C@H](CO)O3)O2)C(C(=O)NC(C)(C)C)c2ccc(-c3ccccc3)cc2)c1 (some centres undefined)		inactive: -1.97%
CC1=C(c2ccc(Cl)cc2)S(=O)(=O)N=C1N1CCN(c2cccc(C)c2)C(C)C1 (centres undefined)		inactive: 12.5%
COc1ccccc1NC(=O)Oc1ccc(NC(=O)c2ccco2)cc1	inconclusive: 25.1 µM [inhibitor, partial curve, poor fit]	
Cc1cc(C(=O)N(C)C2CCCCC2)no1		inactive: 9.11%
Cn1cccc1C(=O)OCC(=O)NC(=O)NC1CCCCC1	inconclusive: 25.1 µM [inhibitor, single point]	
N#C/C(=C\c1ccc(O)c(O)c1)C(=O)N1CCCC1		inactive: -6.66%
O=C(O)c1nn(CCOc2c(Cl)cccc2Cl)c(=O)c2ccccc12	inconclusive: 31.6 µM [inhibitor, single point]	
COc1ccccc1CN1C2CCCC1CC(NC(=O)/C=C/c1ccccc1)C2 (centres undefined)		inactive: 24.4% [at 57.1 µM]
C#CCOc1c(/C=C\c2nc(O)c([N+](=O)[O-])c(=O)[nH]2)cc(Br)cc1OC	inconclusive: 15.8 µM [inhibitor, full curve, poor fit]	
COc1ccc(CCN(C)C2CCCN(C(=O)Cn3cccn3)C2)cc1OC (centres undefined)	inconclusive: 56.2 µM [inhibitor, partial curve, poor fit]	
CCCc1cc(=O)oc2cc(C)cc(OC(=O)c3ccco3)c12		inactive: 10.8%
CCN(CC)S(=O)(=O)c1cccc(C(=O)N/N=C/c2ccc(OC)c(O)c2)c1	inconclusive: 79.4 µM [inhibitor, single point]	
NC(N)=NS(=O)(=O)c1ccc(NC(=S)NC(=O)c2sc3ccccc3c2Cl)cc1		inactive: -19.4%
COC(=O)CCC(=O)OC1(C)C(=O)C=C2C=C(C3CC3)N(CC3CC3)C=C2C1=O (centres undefined)		inactive: 7.25%
Cc1ccc[n+](Cc2ccc([N+](=O)[O-])cc2)c1		inactive: 15.9%
O=[N+]([O-])C1=C(Nc2cccc3ccccc23)CS(=O)(=O)C1	inconclusive: 39.8 µM [inhibitor, partial curve, poor fit]	
CCC(Cc1ccccc1)NC(=O)c1csc2c1CCCCC2 (centres undefined)		inactive: 9.5%

Compound	Potency	activity change, negative = inhibition
CC(C)(C)C(=O)Cn1ncc(Br)c(Br)c1=O	inconclusive: 50.1 µM [inhibitor, partial curve]	
CCn1cc(C(=O)NN)c(=O)c2cc(F)c(N3CCCCC3)cc21		inactive: -19.4%
CCOC(=O)c1c(Nc2ccccc2)nnc(-c2ccccc2)c1-c1ccccc1	inconclusive: 89.1 µM [inhibitor, partial curve, poor fit]	
CCOc1ccccc1N(CC(=O)NC1CCCC1)C(=O)CCC(=O)Nc1cc(C)on1	inconclusive: 89.1 µM [inhibitor, single point]	
Cc1ccc(NC(=O)CCS(=O)(=O)c2cccc3nonc23)c(Br)c1	inconclusive: 50.1 µM [inhibitor, partial curve, poor fit]	
Cc1ccccc1C(=O)Nc1nnc(-c2ccco2)o1		inactive: 21.4% [at 57.1 µM]
CCOC(=O)c1[nH]c(C)c(/C(O)=C2\C(=O)C(=O)N(CCN(C)C)C2c2ccc(C)o2)c1C (centres undefined)	inconclusive: 17.8 µM [inhibitor, full curve]	
COC(=O)C1=C(N)OC2=C(C(=O)CCC2)C1c1cccs1 (centres undefined)	inconclusive: 79.4 µM [inhibitor, single point]	
Cc1c(Cl)cccc1NC(=S)Nn1cnnc1	inconclusive: 10 µM [inhibitor, partial curve, poor fit]	
COc1cc2c(cc1OC)C1=C(C#N)CN(CC(=O)O)CN1CC2	inconclusive: 11.2 µM [inhibitor, partial curve]	
O=C1CC(N2CCC(Cc3ccccc3)CC2)C(=O)N1CCc1ccccc1 (centres undefined)	active: 31.6 µM	
Nn1c(SCc2cccc3ccccc23)nnc1-c1ccco1	inconclusive: 17.8 µM [inhibitor, partial curve, poor fit]	
CCOc1ccc(S(=O)(=O)N2CCN(C(=S)NCc3ccco3)CC2)cc1		inactive: 3.77%
CN(C)c1ccc(/C=C/c2ccnc3ccccc23)cc1C=O	inconclusive: 70.8 µM [inhibitor, partial curve]	
COc1ccc(C(=O)Oc2ccc(=O)n(-c3ccccc3)n2)cc1	inconclusive: 79.4 µM [inhibitor, single point]	
CCCCn1c(=O)[nH]c(=O)c2c1nc(-c1ccc(-c3ccc(F)cc3)o1)n2C	inconclusive: 39.8 µM [inhibitor, single point]	
CC(=O)OCC(NC(=O)C(Cc1ccccc1)NC(=O)OC(C)(C)C)C1OC(n2cc(C)c(=O)[nH]c2=O)C(OC(C)=O)C1OC(C)=O (centres undefined)		inactive: -11.3%
Cc1cc(=S)cc(C)n1CCCO	active: 12.6 µM	
COCCn1c(=O)[nH]c(=O)c2c1nc(-c1ccc(-c3ccc(Cl)cc3[N+](=O)[O-])o1)n2Cc1ccccc1	inconclusive: 70.8 µM [inhibitor, partial curve]	
Fc1ccc(Sc2nc(-c3ccccc3)nnc2C(F)(F)F)cc1	inconclusive: 12.6 µM [inhibitor, partial curve]	
COc1ccccc1OCC(=O)Nc1nnc(-c2ccco2)s1	inconclusive: 50.1 µM [inhibitor, partial curve]	
CCc1c(C)c2cc(Cl)c(O)c(CN(C)C)c2oc1=O	inconclusive: 31.6 µM [inhibitor, full curve, poor fit]	
CN(C)c1ccc(N=Nc2nc3ccccc3n2C)cc1	inconclusive: 12.6 µM [inhibitor, full curve]	
